Laboratory results: the supplement of paper PMC12217912
The list shows a part of the results. Sequences were assembled here from the parent chain. Values near 0.05 are background.

B1: TEV protease; numbered along this chain (parent)
chain: MGESLFKGPRDYNPISSSICHLTNESDGHTTSLYGIGFGPFIITNKHLFRRNNGTLVVQSLHGVFKVKDTTTLQQHLVDGRDMIIIRMPKDFPPFPQKLKFREPQREERICLVTTNFQTKSMSSMVSDTSCTFPSGDGIFWKHWIQTKDGQCGSPLVSTRDGFIVGIHSASNFTNTNNYFTSVPKNFMELLTNQEAQQWVSGWRLNADSVLWGGHKVFMVKPEEPFQPVKEATQL

Variants of: B1
Test: raw area under fraction-flipped curve 0-4 h after induction (AUC4h, not background-subtracted), DNA-recorder readout of cleavage of the substrate (dimensionless); higher = more cleavage of the substrate by the protease variant
Settings: temperature: 34 °C; time window: 0-4 h after rhamnose induction
Description: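 In vivo DNA recorder in E. coli TOP10(DE3) ΔrhaA at 34 °C. Each TEVp single-site mutant (parent TEVp 0) is paired with a single-site variant of the 7-mer TEVs (canonical ENLYFQ|S). The substrate sits between flexible linkers in a Bxb1-sfGFP-TEVs-SsrA fusion, so cleavage stabilises Bxb1 and speeds flipping of a recombination array, read by NGS. The value is the raw area under the fraction-flipped curve over 0-4 h after rhamnose induction (AUC4h), with ≥20 reads per time point. It is not background-subtracted; inactive controls average about 0.047.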
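Further: Bxb1 expression induced with 0.2% (w/v) L-rhamnose at OD600 near 0.5, cultures sampled hourly, flipped fraction per protease–substrate barcode pair counted by paired-end Illumina sequencing.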

Row | Variant | area with substrate EALYFQS | area with substrate ECLYFQS | area with substrate EDLYFQS | area with substrate EELYFQS | area with substrate EFLYFQS | area with substrate EGLYFQS | area with substrate EHLYFQS | area with substrate EILYFQS | area with substrate EKLYFQS | area with substrate EMLYFQS | area with substrate EPLYFQS | area with substrate EQLYFQS | area with substrate ERLYFQS | area with substrate ESLYFQS | area with substrate EVLYFQS | area with substrate EWLYFQS | area with substrate EYLYFQS | area with substrate ELLYFQS | area with substrate ETLYFQS
1 | N177E | 0.106 | 0.109 | 0.106 | 0.126 | 0.115 | 0.101 | 0.0855 | 0.108 | 0.109 | 0.0912 | 0.11 | 0.122 | 0.0889 | 0.121 | 0.0829 | 0.0979 | 0.112 | – | –
2 | S32A | 0.113 | 0.0866 | 0.111 | 0.113 | 0.0966 | – | – | 0.0808 | – | – | – | 0.122 | 0.118 | 0.107 | 0.0931 | 0.0846 | 0.0978 | – | –
3 | S32P | 0.0668 | 0.0608 | 0.0547 | – | 0.068 | – | 0.0613 | 0.0408 | 0.0651 | – | 0.0648 | – | 0.0578 | 0.0607 | 0.0575 | 0.0632 | – | 0.0516 | 0.0629
4 | V64T | 0.109 | 0.115 | 0.0897 | – | – | – | 0.109 | – | 0.0972 | 0.114 | – | 0.127 | – | 0.102 | – | – | – | – | –
5 | N13T | 0.0795 | 0.0974 | 0.145 | 0.126 | 0.112 | 0.125 | 0.128 | 0.113 | 0.0642 | 0.142 | – | – | 0.108 | 0.124 | 0.0999 | 0.0987 | 0.109 | 0.0864 | 0.116
6 | V157F | 0.127 | 0.0706 | 0.102 | 0.0856 | 0.115 | 0.11 | 0.0828 | 0.0806 | 0.12 | 0.0737 | 0.115 | 0.186 | 0.0875 | 0.097 | – | – | 0.0558 | 0.0727 | 0.0599
7 | H21P | 0.0555 | 0.0416 | 0.0518 | 0.0711 | 0.0602 | 0.0627 | – | 0.0521 | 0.0526 | 0.0447 | 0.0561 | 0.0645 | 0.0462 | 0.0569 | 0.0489 | 0.0505 | 0.0542 | 0.0552 | 0.0424
8 | E224C | 0.146 | 0.112 | 0.108 | 0.12 | 0.102 | – | 0.0935 | 0.0831 | 0.0988 | 0.111 | 0.111 | 0.0965 | 0.101 | 0.0846 | 0.0869 | 0.0896 | 0.118 | 0.088 | 0.121
9 | N24D | 0.0727 | 0.0801 | – | 0.0781 | – | – | – | 0.0575 | 0.0821 | 0.108 | – | 0.0905 | 0.0805 | 0.152 | 0.0593 | 0.0541 | 0.0653 | – | –
10 | N24H | 0.0872 | – | 0.109 | 0.0695 | – | 0.0638 | 0.119 | 0.0832 | 0.0999 | – | – | 0.0997 | 0.0675 | 0.0844 | 0.0987 | – | 0.0971 | 0.0731 | 0.0822
11 | N24T | 0.0807 | 0.0764 | 0.0912 | – | – | 0.0688 | 0.0579 | 0.071 | – | 0.0737 | 0.0836 | 0.0816 | 0.0547 | 0.0771 | – | 0.0734 | – | 0.0666 | 0.0805
12 | P96N | 0.116 | 0.0718 | 0.119 | – | – | – | 0.0812 | 0.082 | 0.0942 | – | – | – | 0.106 | 0.103 | 0.0953 | 0.115 | 0.102 | – | –
13 | I43K | 0.0416 | 0.0343 | 0.0297 | 0.0548 | 0.0501 | 0.027 | – | 0.0485 | – | 0.049 | 0.0414 | 0.0713 | – | 0.0472 | 0.0261 | 0.0444 | – | 0.055 | 0.0484
14 | T176I | 0.0777 | 0.078 | 0.08 | 0.0954 | – | 0.0619 | 0.0802 | 0.0551 | 0.0684 | 0.105 | 0.0821 | 0.069 | 0.0652 | 0.0759 | 0.0707 | 0.0671 | – | 0.0701 | –
15 | T176D | 0.0736 | – | 0.0926 | – | – | 0.0846 | – | 0.0677 | 0.0864 | 0 | – | – | 0.0578 | 0.0797 | – | – | – | – | –
16 | K142G | 0.0887 | 0.0814 | 0.0821 | 0.081 | 0.128 | 0.0797 | 0.0687 | – | 0.0728 | 0.082 | 0.0893 | 0.0804 | 0.0677 | 0.0794 | 0.0731 | 0.049 | – | 0.0566 | 0.0898
17 | H168G | 0.0543 | 0.0585 | 0.0647 | 0.0556 | – | – | – | – | – | 0.0781 | – | 0.0585 | – | 0.0666 | – | – | 0.0766 | – | 0.04
18 | H168Y | 0.0529 | 0.0607 | – | 0.0601 | 0.0751 | 0.0829 | 0.0378 | 0.0586 | 0.0537 | – | 0.0642 | – | 0.0462 | 0.0632 | 0.0481 | – | 0.077 | 0.057 | 0.0562
19 | L48E | 0.0645 | 0.0492 | – | 0.0511 | 0.068 | – | – | 0.0574 | – | 0.0577 | – | – | 0.062 | 0.0629 | 0.0412 | 0.0595 | – | 0.0363 | –
20 | C152G | 0.0592 | 0.036 | 0.0573 | 0.0627 | 0.0509 | 0.0543 | 0.0678 | – | 0.0536 | 0.0562 | 0.0577 | 0.0633 | – | 0.055 | 0.0542 | 0.0553 | – | 0.0608 | 0.0718
21 | C152V | 0.0683 | 0.0437 | – | 0.0614 | – | 0.056 | 0.0612 | 0.0801 | 0.0543 | 0.0529 | 0.0676 | 0.0509 | 0.078 | 0.0679 | 0.0605 | 0.063 | 0.0619 | 0.0605 | 0.0531
22 | W144Y | 0.0891 | 0.0939 | 0.11 | 0.0905 | – | 0.0631 | 0.102 | 0.0759 | 0.0809 | 0.101 | 0.0792 | – | 0.0951 | 0.0901 | – | – | – | 0.0689 | –
23 | W144M | 0.0958 | 0.0885 | – | – | – | – | – | 0.0923 | 0.0928 | 0.0917 | – | 0.0995 | 0.103 | 0.101 | – | 0.0803 | – | 0.0845 | –
24 | T192I | 0.105 | 0.0883 | 0.0966 | 0.0896 | 0.108 | 0.0848 | 0.0827 | 0.107 | 0.104 | 0.103 | 0.103 | 0.127 | 0.106 | 0.102 | 0.105 | 0.0929 | 0.0915 | 0.114 | 0.096
25 | P40R | 0.12 | – | 0.148 | – | 0.0943 | – | 0.116 | 0.121 | 0.112 | 0.107 | – | 0.131 | 0.0922 | 0.133 | 0.0917 | – | 0.129 | – | –
